These results are taken from paper PMC6919601, “Identification of Plasmodium dipeptidyl aminopeptidase allosteric inhibitors by high throughput screening” (PLoS ONE, 2019).

Among all 110,000 compounds or so, about 230 (0.21%) showed an effect of 50% or more. The list shows a part of the results.
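Also: 30 min substrate incubation versus DMSO and 10 µM JCP410 controls.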

For the test, the target named is DPAP1 (Plasmodium falciparum, UniProt Q8IIJ9). Kind of test: primary screen, percent inhibition; read by cleavage of a fluorogenic dipeptide substrate; higher = more effect of the substance. Also noted: species or system P. falciparum D10 trophozoite lysates; single well.
Chain of DPAP1 (Q8IIJ9 whole entry, looked up): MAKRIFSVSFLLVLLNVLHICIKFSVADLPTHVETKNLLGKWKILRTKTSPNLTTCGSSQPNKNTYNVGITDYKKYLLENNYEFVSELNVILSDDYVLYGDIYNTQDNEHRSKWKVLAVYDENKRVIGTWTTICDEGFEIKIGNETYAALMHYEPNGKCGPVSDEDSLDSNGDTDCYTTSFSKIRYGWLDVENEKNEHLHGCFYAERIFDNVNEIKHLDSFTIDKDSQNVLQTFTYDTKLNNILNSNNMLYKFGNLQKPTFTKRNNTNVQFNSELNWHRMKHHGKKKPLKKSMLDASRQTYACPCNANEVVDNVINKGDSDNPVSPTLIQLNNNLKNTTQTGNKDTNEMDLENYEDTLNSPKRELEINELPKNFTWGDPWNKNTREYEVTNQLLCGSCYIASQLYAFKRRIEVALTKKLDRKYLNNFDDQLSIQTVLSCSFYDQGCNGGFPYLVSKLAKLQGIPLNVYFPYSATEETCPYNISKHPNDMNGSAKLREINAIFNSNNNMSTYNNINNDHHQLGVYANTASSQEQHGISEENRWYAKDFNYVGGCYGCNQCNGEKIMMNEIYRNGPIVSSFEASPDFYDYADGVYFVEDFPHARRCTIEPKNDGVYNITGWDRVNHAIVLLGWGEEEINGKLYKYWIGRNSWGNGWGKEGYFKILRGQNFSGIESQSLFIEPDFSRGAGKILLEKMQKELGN
For the compound `CCc1ccccc1NC(=O)c1ccc(NC(C)=O)cc1`, the “% Inhibition @ 10 uM” value is listed as -0.127%.
With `COc1ccc(C2C(C#N)=C(SCC(=O)Nc3ccccc3)N=C3CC(C)(C)CC(O)=C32)cc1` (stereo not shown) the figure was -1.08%.
As for `COc1ccccc1CCNCc1ccc(OC)c(C)c1OC`, the figure is -0.467%.
For the compound `NC(=O)c1cc(C(N)=O)c(C(N)=O)cc1C(N)=O`, the “% Inhibition @ 10 uM” value turned out to be 19%.
As to `Cc1cc(C)c2c(n1)nn1c(C)c(CCC(=O)NCC(C)c3ccccc3)c(C)nc21` (stereo not shown), the “% Inhibition @ 10 uM” value is on record as -4.74%.
On to `CC1CCN(S(=O)(=O)c2cccc3c(S(=O)(=O)N4CCC(C)CC4)cccc23)CC1`, for which the “% Inhibition @ 10 uM” value is listed as -2.35%.
With `COc1ccc(Cl)cc1NC(=O)c1ccccc1Br` the figure was -3.26%.
Regarding `CCc1ccc(S(=O)(=O)c2nnn3c2nc(O)c2ccccc23)cc1`, the “% Inhibition @ 10 uM” value is listed as 11.3%.
With `C=CCOc1c(Br)cc(/C=C2/C(=O)ON=C2C)cc1OC` the figure was 1.31%; with `O=C(NCc1cccnc1)C1CCN(S(=O)(=O)N2CCCC2)CC1`, -1.21%; with `O=S(=O)(c1ccccc1)N1CCSC1c1ccc(Cl)cc1` (stereo not shown), -1.82%.
As for `CC(C)c1nnc(NC(=O)Cc2ccccc2)s1`, the figure is -0.836%; as for `Cc1cc(N2C(=O)C(O)=C(C(=O)c3cccs3)C2c2ccc(C(C)C)cc2)no1` (stereo not shown), 19.4%.
As for `Cc1ccc(C)c(S(=O)(=O)Nc2ccc(F)c(Cl)c2)c1`, the figure is 1.8%.
On to `Cc1ccc(O)c(/C=N/c2c(C)nn(C)c2C)c1`, for which the “% Inhibition @ 10 uM” value was found to be 7.26%.
With `CCOc1ccc(CNCc2c(C(=O)O)c(C)n(Cc3cccc(C)c3)c2C)cc1` the figure was -5.49%.
As for `CC(=O)c1ccc(C(=O)N(CCN(C)C)c2nc3cc4c(cc3s2)OCCO4)cc1`, the figure is 6.78%; as for `CN(C)CCN(C(=O)C1COc2ccccc2O1)c1nc2ccc(Cl)cc2s1` (stereo not shown), 0.95%.
For the compound `O=C(c1ccc(S(=O)(=O)N2CCOCC2)cc1)N1CCN(c2ccccc2F)CC1`, the “% Inhibition @ 10 uM” value is -1.22%.
As for `CC(C)(C)NCC(=O)Nc1c2c(nc3c1CCC3)CCC2`, the “% Inhibition @ 10 uM” value came to 1.8%.
As for `O=[N+]([O-])c1ccccc1S(=O)(=O)NCCOc1ccc(Cl)cc1`, the figure is 0.00784%; as for `CCN(CC)CCCOc1ccccc1C(C)(C)C`, -3.67%.
Turning to `COc1ccc(-c2cs/c(=N\c3cccc(C(F)(F)F)c3)n2CCCO)cc1F`, the “% Inhibition @ 10 uM” value is 0.993%.
As for `NC(=O)C1CCN(Cc2nc(N)nc(Nc3ccccc3)n2)CC1`, the figure is 3.04%.
As for `CN1C2=C(C(=O)CCC2)C(c2ccccc2OCc2ccccc2F)C2=C1CCCC2=O`, the figure is 0.147%.
In the case of `CCOC(=O)/C(C#N)=C/c1c(Oc2ccc(CC)cc2)nc2ccccn2c1=O`, the “% Inhibition @ 10 uM” value is reported as 3.12%.
With `COc1cc(-c2nc3c(=O)n(C)c(=O)n(C)c3[nH]2)ccc1O`, the “% Inhibition @ 10 uM” value is recorded as -1.52%.
As for `Cc1ccc(S(=O)(=O)c2nc(-c3cccs3)oc2S(=O)(=O)CC(C)C)cc1`, the figure is -1.22%.
Take `CCOCCCNC(=O)C(NC(=O)CNC(C)=O)c1ccc(C)cc1` (stereo not shown): the “% Inhibition @ 10 uM” value was determined as 1.26%.
On to `O=C1NC(c2ccc(Cl)cc2Cl)Nc2c1sc(=S)n2-c1ccccc1` (stereo not shown), for which the “% Inhibition @ 10 uM” value is -3.14%.
For `Cc1ccc2nc3sc(C(=O)O)cc3cc2c1`, the “% Inhibition @ 10 uM” value is given as 7.04%.
On to `CCc1nnc(NC(=O)c2c(C)nn(-c3ccc(F)cc3)c2-n2cccc2)s1`, for which the “% Inhibition @ 10 uM” value is -1.95%.
Take `COc1ccccc1OCCCN1CCOCC1`: the “% Inhibition @ 10 uM” value was found to be 0.815%.
Take `CC(C)NC(=O)CN1Cc2ccccc2C1=O`: the “% Inhibition @ 10 uM” value is -1.86%.
Regarding `Cc1cccc(-c2nc(CN3CCCC(C(=O)NC4CCCc5ccccc54)C3)c(C)o2)c1` (stereo not shown), the “% Inhibition @ 10 uM” value is given as 0.689%.
With `Cn1c2ccccc2c2cnn(CC(=O)NCC3CCCO3)c(=O)c21` (stereo not shown) the figure was -7.36%; with `CCOc1cccc(-c2cc(C(=O)Nc3ccc(NC(C)=O)cc3)c3ccccc3n2)c1`, -5.26%.
With `CCc1nn(CC(=O)N2CCC(C)CC2)c(=O)c2cc3sccc3n12` the figure was 1.8%.
As for `C=CCNC(=O)C1CC=CCC1C(=O)Nc1ccccc1[N+](=O)[O-]` (stereo not shown), the figure is -1.91%; as for `O=C(CCN1CCCCC1)Nc1ccc(F)cc1`, 2.51%.
`N#CC1=C(N)Oc2c(sc3ccccc23)C1c1ccc(Br)o1` (stereo not shown): the “% Inhibition @ 10 uM” value was -9.79%.
With `CCOc1ccc(N2C(=O)/C(=C/c3cc(Cl)ccc3O)C(=O)NC2=S)cc1`, the “% Inhibition @ 10 uM” value is 5.2%.
In the case of `Cc1ccc(OCC(=O)Nc2ccc(S(=O)(=O)N3CCCC3)cc2)c(C)c1`, the “% Inhibition @ 10 uM” value is reported as -3.34%.
With `CCN1CCCC1CNC(=O)Cn1nc(C)n2c(cc3cc(C)ccc32)c1=O` (stereo not shown) the figure was 6.35%; with `O=C(NCCCN1CCCC1=O)c1ccc2c(c1)ncn2C1CCCCC1`, -5.43%; with `c1ccc(CSc2nn3cnnc3s2)cc1`, -3.53%.
With `Cc1ccccc1COc1ccc(/C=C2\C(=N)N3N=C(N4CCOCC4)SC3=NC2=O)cc1` the figure was 0.0579%; with `Cc1onc(-c2ccccc2Cl)c1C(=O)N1CCc2ccccc2C1`, 3.44%.
With `N#CCC(=O)NCc1cccc(Cl)c1` the figure was -1.99%.
In the case of `CCCN(CCC)CCCNC(=O)C1c2ccccc2C(=O)N2CCc3ccccc3C12` (stereo not shown), the “% Inhibition @ 10 uM” value was 7.38%.
As for `CCCC[C@H](NC(=O)[C@H](Cc1ccccc1)NC(C)=O)C(=O)c1nc2ccccc2o1`, the figure is -1.83%; as for `Oc1oc(-c2cccc3ccccc23)nc1/C=N/C1CCCCC1`, 3.74%.
Regarding `CCOC(=O)N1CCN(c2c(N3CCN(C)CC3)c(=O)c2=O)CC1`, the “% Inhibition @ 10 uM” value is given as 1.93%.
As for `CC1=CC(C)C2(COC(c3cccnc3)OC2)C(C)C1` (stereo not shown), the figure is -1.77%.
With `Cc1ccccc1-c1nc(CN2CCC(C(=O)NCCCOC(C)C)CC2)c(C)o1` the figure was -2.85%; with `Cc1ccc(O)c(C2=Nc3ccccc3C2(C)C)c1`, -3.98%; with `CC(CCc1ccccc1)NC(=O)c1cccnc1` (stereo not shown), 1.83%.
For the compound `COCCNC(=O)CCc1nnc2ccc(N3CCC(C)CC3)nn12`, the “% Inhibition @ 10 uM” value was -4.02%.
With `CC1(C)CC(=O)C(/C=N/Cc2cccs2)=C(O)C1` the figure was -6.27%; with `CCCC1=C(C(=O)OCC)C(c2ccc(F)cc2)NC(=O)N1` (stereo not shown), 4.88%; with `COc1cc(OC)c2c(C)c(CC(=O)N3CCCC3)c(=O)oc2c1`, 4.13%.
With `N#Cc1c(NC(=O)c2cccc([N+](=O)[O-])c2)sc2c1CCCC2` the figure was 4.26%; with `COc1ccc(CN2CCN(Cc3ccc4c(c3)OCO4)CC2)cc1`, -6.4%.
In the case of `CC(C(=O)C12CC3CC(CC(C3)C1)C2)N(C)C` (stereo not shown), the “% Inhibition @ 10 uM” value is reported as -0.615%.
